{
  "source": "ChEMBL document CHEMBL4888484",
  "about": "“Replenishing the malaria drug discovery pipeline: Screening and hit evaluation of the MMV Hit Generation Library 1 (HGL1) against asexual blood stage Plasmodium falciparum ,using a nano luciferase reporter read-out” (2022)",
  "note": "Screen size: about 150,000 compounds; about 540 (0.36%) showed an effect of 50% or more. Some of the results follow.",
  "data": [
    {"tested_on": "Plasmodium falciparum", "assay": "Primary screen in NF54 nanoGlo assay, in single point, at 2uM, 72h; a lower Z score goes with more inhibition", "assay_type": "functional, Erythrocyte", "details": "timepoint 72 hour", "units": {"% Inhibition": "%"}, "values": [
      {"smiles": "O=C(CCn1cncn1)NC[C@@H]1COc2ccccc2C1", "% Inhibition": -1, "Z score": 0.25},
      {"smiles": "COc1ccccc1CN[C@H]1CC(C)(C)[C@@H]2C[C@@](C)(O)CC[C@]12CCC(=O)NCCN1CCOCC1", "% Inhibition": 1, "Z score": -0.13},
      {"smiles": "O=C(CCc1ccc(=O)[nH]n1)N1CCC(N2CCc3ccccc3C2)CC1", "% Inhibition": -10, "Z score": 1.85},
      {"smiles": "N#CCN(CC#N)C(=O)COc1ccc(Cl)c(Cl)c1", "% Inhibition": -9, "Z score": 1.79},
      {"smiles": "Cc1nnc(NC(=O)CC2(N3Cc4ccccc4C3=O)CCOCC2)s1", "% Inhibition": -13, "Z score": 1.83},
      {"smiles": "CCCN(Cc1c(-c2ccccc2)noc1N(C)C(C)C)C(=O)c1ccccc1OC", "% Inhibition": -5, "Z score": 0.67},
      {"smiles": "COc1cc2c(cc1OC)[C@H](CNS(=O)(=O)c1ccc(C)cc1)N(Cc1ccc(F)cc1)CC2", "% Inhibition": 14, "Z score": -1.9},
      {"smiles": "CCS(=O)(=O)c1ccccc1N1CCN(CC(C)C)C(=O)C1", "% Inhibition": -10, "Z score": 1.01},
      {"smiles": "Cc1cnn([C@@H](C)C2CC2)c1NC(=O)NCc1cccc(C(=O)N(C)C)c1", "% Inhibition": -9, "Z score": 1.29},
      {"smiles": "Cc1ccc(NC(=O)Cc2c(C)nc3nc(-c4ccccc4Cl)nn3c2C)c(C)c1", "% Inhibition": -9, "Z score": 0.92},
      {"smiles": "CC1CCCC1(O)CNC(=O)C1CC12CCN(C(=O)OCc1ccccc1)C2", "note": "(centres undefined)", "% Inhibition": -17, "Z score": 1.91},
      {"smiles": "O=C(Cc1csc(NC(=O)c2ncccn2)n1)Nc1cccnc1", "% Inhibition": -20, "Z score": 2.32},
      {"smiles": "C[C@H]1CN(c2cccc(Cl)c2)C(=O)CN1C(=O)c1ccc2[nH]nnc2c1", "% Inhibition": -5, "Z score": 0.81},
      {"smiles": "Cc1csc2c(N3CCN([C@H]4CCCN(C)C4)CC3)ncnc12", "% Inhibition": -11, "Z score": 1.09},
      {"smiles": "COCCCN1CC(=O)N[C@@H]2CN(C(=O)C3CCOCC3)CC[C@@H]2OCc2cccc(c2)Oc2ccc(cc2OC)CCC1=O", "% Inhibition": -12, "Z score": 1.52},
      {"smiles": "N#Cc1cccc(N2CC(c3ccccn3)C2)n1", "% Inhibition": -10, "Z score": 1.94},
      {"smiles": "O=C(N[C@@H](Cc1ccccc1)c1ccccn1)c1cnn2c1OCCC2", "% Inhibition": -4, "Z score": 0.71},
      {"smiles": "COc1ccc(CC(=O)NCc2ccc3c(c2)CCN3C(=O)c2ccc(C)cc2)cc1OC", "% Inhibition": 1, "Z score": -0.12},
      {"smiles": "Cc1cc(N2CCC[C@H](CNC(=O)c3cn(C)nc3C)C2)ccn1", "% Inhibition": -16, "Z score": 1.5},
      {"smiles": "COc1cccc(-c2c(NC(=O)c3ccc(Cl)cc3)n(-c3ccccc3)nc(C)c2=O)c1", "% Inhibition": 0, "Z score": 0},
      {"smiles": "O=C1NCCN1CC1CCN(C(=O)c2n[nH]c3ccccc23)CC1", "% Inhibition": 2, "Z score": -0.21},
      {"smiles": "Cc1nn(C)c(Cl)c1C(=O)N(C)C[C@H](C)C(=O)O", "% Inhibition": -2, "Z score": 0.23},
      {"smiles": "Cc1ccc(NS(=O)(=O)c2ccc(C(=O)N3C4CCC3CC(=O)NC4)cc2)cc1C", "note": "(centres undefined)", "% Inhibition": -10, "Z score": 1.49},
      {"smiles": "O=C(Nc1ncccc1Br)c1c[nH]nn1", "% Inhibition": -1, "Z score": 0.15},
      {"smiles": "COc1ccccc1[C@@H](NC(=O)OC(C)(C)C)C(=O)O", "% Inhibition": 13, "Z score": -1.48},
      {"smiles": "CCc1csc(CC(=O)N2CC3COCC(C2)O3)n1", "% Inhibition": 4, "Z score": -0.64},
      {"smiles": "CC(C)Cc1nc(CNC(=O)C2CCCC2)no1", "% Inhibition": 9, "Z score": -1.17},
      {"smiles": "CC1CC2(CCCCC2)NC(C)c2ccccc21", "note": "(centres undefined)", "% Inhibition": -3, "Z score": 0.45},
      {"smiles": "Cc1nn2c(nc1=O)-c1ccccc1NC21CCCCCC1", "% Inhibition": -11, "Z score": 1.88},
      {"smiles": "Cc1cc(C(=O)NCCOCCn2ccnc2)no1", "% Inhibition": 0, "Z score": -0.01},
      {"smiles": "CCCN(CCC)S(=O)(=O)Cc1ccc(Cl)cc1C#N", "% Inhibition": 15, "Z score": -1.73},
      {"smiles": "CN(C(=O)CN1C(=O)c2ccccc2C1=O)c1nc2ccccc2o1", "% Inhibition": 0, "Z score": 0},
      {"smiles": "CC(C)Oc1ccc(C(=O)N2C3CCC2CN(Cc2ccccc2)C3)cc1", "% Inhibition": -13, "Z score": 2.54},
      {"smiles": "O=C(CC[C@H]1CCCCO1)N1CCOc2ccncc21", "% Inhibition": -1, "Z score": 0.11},
      {"smiles": "O=C(NC1CCCCCCC1)[C@H]1CCS(=O)(=O)C1", "% Inhibition": 0, "Z score": -0.03},
      {"smiles": "C[C@@H](C1CC1)N(CCC#N)C(=O)c1ccc2c(c1)NC(=O)C2", "% Inhibition": 0, "Z score": -0.05},
      {"smiles": "C=CCN(CC(=O)N(Cc1ccccc1)Cc1ccc(C)o1)S(=O)(=O)c1ccccc1", "% Inhibition": -6, "Z score": 0.71},
      {"smiles": "CC(C)Cc1ccc(CN(C)C[C@H]2CCOC2)s1", "% Inhibition": 3, "Z score": -0.62},
      {"smiles": "COc1ccc(CCC(=O)N2CCCCCNC(=O)[C@@H]3CCC[C@@H]32)cc1", "% Inhibition": -6, "Z score": 1.02},
      {"smiles": "Cc1cccc(OCc2nc(-c3nonc3N)no2)c1C", "% Inhibition": -10, "Z score": 1.34},
      {"smiles": "CC(C)Cn1c(C(=O)N2CCCC2)nnc1N1CC[C@]2(CNC(=O)C2)C1", "% Inhibition": 1, "Z score": -0.1},
      {"smiles": "NC(=O)c1cnc(N2CCc3[nH]c4ccccc4c3C2)c(Cl)c1", "% Inhibition": -20, "Z score": 3.08},
      {"smiles": "COCc1cc(O)nc(N=C(N)Nc2ccc(Oc3ccccc3)cc2)n1", "% Inhibition": -17, "Z score": 2.18},
      {"smiles": "CC(Oc1ccccc1)C(=O)Nc1cc(NC(=O)C(C)Oc2ccccc2)cc(C(=O)O)c1", "note": "(centres undefined)", "% Inhibition": -8, "Z score": 1.06},
      {"smiles": "Cc1cc(C)cc(NC(=O)CC(=O)NCC[C@H]2CCCN2C)c1", "% Inhibition": 19, "Z score": -2.38},
      {"smiles": "COCc1noc(CNc2nc(-c3ccco3)nc3c2CCNCC3)n1", "% Inhibition": 3, "Z score": -0.63},
      {"smiles": "COCc1noc(CN[C@H]2CCCC2(C)C)n1", "% Inhibition": -7, "Z score": 1.04},
      {"smiles": "COc1ccccc1CNC(=O)c1ccc2nc(-c3ccc(OC)c(OC)c3)c(-c3ccc(OC)c(OC)c3)nc2c1", "% Inhibition": 30, "Z score": -3.54},
      {"smiles": "COc1cccc(-c2nc3ccc(-c4ccccc4)cn3c2CN2CCN(C(=O)c3cccc(F)c3)CC2)c1", "% Inhibition": 6, "Z score": -0.67},
      {"smiles": "O=C(Nc1ccc2c(c1)OC1(CCCCC1)O2)c1ccc(F)cc1", "% Inhibition": -1, "Z score": 0.08},
      {"smiles": "C=CCN(C)c1nnc(C2CCCO2)n1CC1CCCCO1", "note": "(centres undefined)", "% Inhibition": -21, "Z score": 4.09},
      {"smiles": "N#CC1(C#N)[C@@H](C(=O)c2ccccc2)C12CCCCC2", "% Inhibition": -21, "Z score": 2.65},
      {"smiles": "CC1CCCC(C(=O)NCCCNCc2cccnc2)C1", "note": "(centres undefined)", "% Inhibition": -7, "Z score": 0.7},
      {"smiles": "CCC(C)C(OC)C(=O)N(C)c1ncccn1", "note": "(centres undefined)", "% Inhibition": -7, "Z score": 1.39},
      {"smiles": "COc1ccc2[nH]c3c(c2c1)CCN(C)C31CCN(C(=O)Cc2cccnc2)CC1", "% Inhibition": -4, "Z score": 0.68},
      {"smiles": "Cc1ccc([C@H]2C[C@@H](O)[C@@H](O)[C@@H]2NS(C)(=O)=O)cc1", "% Inhibition": -10, "Z score": 1.47},
      {"smiles": "CC(C)n1cc(NC(=O)N2CCCC[C@@H]2CCc2ccccn2)cn1", "% Inhibition": -6, "Z score": 1.07},
      {"smiles": "CCC[C@H](NC(=O)Cc1ccccc1OC)c1nnn[nH]1", "% Inhibition": 34, "Z score": -3.79},
      {"smiles": "C[C@H](CCC(=O)N1CCN(Cc2ccc3c(c2)OCO3)CC1)[C@H]1CC[C@H]2[C@@H]3[C@@H](O)C[C@@H]4C[C@H](O)CC[C@]4(C)[C@H]3CC[C@]12C", "% Inhibition": -12, "Z score": 1.44},
      {"smiles": "CCN1C(=O)[C@@](CN2CCN(c3cccc(Cl)c3)CC2)(NC(C)=O)c2ccccc21", "% Inhibition": 3, "Z score": -0.4},
      {"smiles": "CCOC(=O)[C@@]1(C(C)C)CCN(Cc2nc(C(C)C)no2)C1", "% Inhibition": 0, "Z score": 0},
      {"smiles": "O=C(Nc1ccc(S(=O)(=O)N2CC3CC4CC3C2C4O)cc1)c1cnccn1", "note": "(centres undefined)", "% Inhibition": 26, "Z score": -2.95},
      {"smiles": "CC[C@H](C)N(Cc1sccc1C)C(=O)CCNC(=O)c1ccc(F)cc1", "% Inhibition": 6, "Z score": -0.76},
      {"smiles": "O=C1N[C@@H](COCc2ccccc2)C(=O)N2CCC[C@H]12", "% Inhibition": 4, "Z score": -0.57},
      {"smiles": "COc1cc(OC)cc([C@H]2CCN(C(=O)c3cc(C)n[nH]3)C2)c1", "% Inhibition": -3, "Z score": 0.28},
      {"smiles": "COc1ccc(-c2nc3cc(C)ccn3c2NC(=O)NCc2ccccc2)cc1", "% Inhibition": -8, "Z score": 0.92},
      {"smiles": "Cn1c(CO)nnc1C1CCN(C(=O)NC2(c3ccc(Cl)cc3)CC2)CC1", "% Inhibition": -8, "Z score": 1.11},
      {"smiles": "Cc1cc(C)c(CNC(=O)[C@H](C)OCC2CC2)c(=O)[nH]1", "% Inhibition": -32, "Z score": 3.77},
      {"smiles": "O=C(Nc1cncc(F)c1)c1cccc(S(=O)(=O)NCc2ccno2)c1", "% Inhibition": -25, "Z score": 2.33},
      {"smiles": "COc1cc2c(cc1OC)CC(=O)N(CC(=O)c1ccc3c(c1)OCCO3)C=C2", "% Inhibition": -12, "Z score": 1.68},
      {"smiles": "CN1CCN([C@H]2CCN(C(=O)COc3ccccc3)C[C@H]2CCCO)CC1", "% Inhibition": -6, "Z score": 1.12},
      {"smiles": "O=C1CCN(C(=O)C2(c3cccc(Cl)c3)CCCC2)CCN1", "% Inhibition": 30, "Z score": -0.41},
      {"smiles": "O=C(Nc1ccc(N2CCOCC2)cc1)C1CC2C=CC1C2", "note": "(centres undefined)", "% Inhibition": -4, "Z score": 0.5},
      {"smiles": "Oc1ccc(-c2nnc(-c3ccc(O)cc3)nn2)cc1", "% Inhibition": 39, "Z score": -2.04},
      {"smiles": "Cc1noc(C)c1CC(=O)N[C@H]1CCS(=O)(=O)C1", "% Inhibition": 5, "Z score": -0.6},
      {"smiles": "COc1cc(NC(=O)c2ccc3[nH]c4c(c3c2)CCCC4)c(OC)cc1NC(=O)c1ccccc1", "% Inhibition": 0, "Z score": -0.01},
      {"smiles": "CCC[C@H](NC(C)=O)C(=O)NCc1nonc1C", "% Inhibition": -16, "Z score": 2.38},
      {"smiles": "Fc1ccc2c(c1)ncn1nc(C3CCC3)nc21", "% Inhibition": 4, "Z score": -0.66},
      {"smiles": "Cc1oc(-c2nc(C#N)c(N3CCCCCC3)o2)cc1S(=O)(=O)N1CCCCC1", "% Inhibition": 2, "Z score": -0.29},
      {"smiles": "O=C(Nc1ccc(S(=O)(=O)N2CCCCCC2)s1)N1CCC[C@H](C(=O)N2CCCCCC2)C1", "% Inhibition": -19, "Z score": 2.21},
      {"smiles": "COc1ccc(=O)n(Cc2nc3ccccc3s2)n1", "% Inhibition": -5, "Z score": 0.47},
      {"smiles": "Cc1ncc(C(=O)N2CCN(C)[C@]3(CCC(=O)N(CC4CC4)CC3)C2)c(C)n1", "% Inhibition": -1, "Z score": 0.14}
    ]}
  ]
}
